Reference: publication PMC9465349, “G protein–coupled receptor kinase phosphorylation of distal C-tail sites specifies βarrestin1-mediated signaling by chemokine receptor CXCR4” (The Journal of Biological Chemistry, 2022)
Results are given in words; binding and its absence hold for the method and conditions named. In cells and extracts the contact can be indirect. Some entries that bind do so weakly or less than the wild type. Blank lines part the entries; values can stand above or below the molecule they belong to.

Protein sequences, listed by entry. Tags and fused reporters are not part of them. Lines headed by an entry give the natural chain unless they say otherwise; changes in a name come on top. Chains listed by the source or under a name are the forms on record and can include a tag or linker.
UniProt P32302: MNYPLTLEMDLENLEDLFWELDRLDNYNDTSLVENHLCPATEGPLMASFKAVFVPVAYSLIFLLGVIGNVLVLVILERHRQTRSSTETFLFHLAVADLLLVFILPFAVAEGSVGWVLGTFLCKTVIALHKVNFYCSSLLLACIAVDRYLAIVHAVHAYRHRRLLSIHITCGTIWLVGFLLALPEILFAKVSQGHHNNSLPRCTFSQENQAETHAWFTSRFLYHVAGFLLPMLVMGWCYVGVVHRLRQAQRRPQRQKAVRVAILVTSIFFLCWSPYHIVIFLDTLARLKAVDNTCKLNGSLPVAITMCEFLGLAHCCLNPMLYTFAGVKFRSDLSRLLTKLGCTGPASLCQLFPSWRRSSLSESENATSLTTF
CXCR5-RLuc8-4S/A (P32302, form named): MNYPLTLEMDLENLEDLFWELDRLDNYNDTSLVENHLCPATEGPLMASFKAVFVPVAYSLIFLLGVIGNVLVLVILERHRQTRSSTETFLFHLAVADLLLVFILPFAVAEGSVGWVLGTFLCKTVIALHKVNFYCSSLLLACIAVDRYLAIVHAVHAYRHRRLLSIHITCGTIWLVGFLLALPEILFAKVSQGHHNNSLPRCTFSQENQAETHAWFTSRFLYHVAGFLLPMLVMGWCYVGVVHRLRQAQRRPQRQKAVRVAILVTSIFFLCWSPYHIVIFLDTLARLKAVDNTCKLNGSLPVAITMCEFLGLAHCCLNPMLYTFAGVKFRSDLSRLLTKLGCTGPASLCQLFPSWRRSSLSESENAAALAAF
UniProt P61073: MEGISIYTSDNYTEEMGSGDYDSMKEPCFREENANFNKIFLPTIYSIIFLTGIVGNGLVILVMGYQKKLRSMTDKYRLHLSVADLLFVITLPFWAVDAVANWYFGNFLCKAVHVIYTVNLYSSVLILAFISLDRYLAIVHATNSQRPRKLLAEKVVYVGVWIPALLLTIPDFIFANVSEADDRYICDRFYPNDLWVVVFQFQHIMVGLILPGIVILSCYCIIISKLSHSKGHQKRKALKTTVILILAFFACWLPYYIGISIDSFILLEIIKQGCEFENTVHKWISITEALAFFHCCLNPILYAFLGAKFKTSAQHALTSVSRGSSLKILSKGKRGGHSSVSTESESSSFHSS

B1: STAM1 (signal-transducing adaptor molecule 1) tagged at the N terminus with Rluc8 (natural protein, UniProt Q92783 1-540, looked up)
chain: MPLFATNPFDQDVEKATSEMNTAEDWGLILDICDKVGQSRTGPKDCLRSIMRRVNHKDPHVAMQALTLLGACVSNCGKIFHLEVCSRDFASEVSNVLNKGHPKVCEKLKALMVEWTDEFKNDPQLSLISAMIKNLKEQGVTFPAIGSQAAEQAKASPALVAKDPGTVANKKEEEDLAKAIELSLKEQRQQSTTLSTLYPSTSSLLTNHQHEGRKVRAIYDFEAAEDNELTFKAGEIITVLDDSDPNWWKGETHQGIGLFPSNFVTADLTAEPEMIKTEKKTVQFSDDVQVETIEPEPEPAFIDEDKMDQLLQMLQSTDPSDDQPDLPELLHLEAMCHQMGPLIDEKLEDIDRKHSELSELNVKVMEALSLYTKLMNEDPMYSMYAKLQNQPYYMQSSGVSGSQVYAGPPPSGAYLVAGNAQMSHLQSYSLPPEQLSSLSQAVVPPSANPALPSQQTQAAYPNTMVSSVQGNTYPSQAPVYSPPPAATAAAATADVTLYQNAGPNMPQVPNYNLTSSTLPQPGGSQQPPQPQQPYSQKALL
notes: STAM1 (signal-transducing adaptor molecule 1); the plasmid holds 'the STAM1-coding region' in pcDNA3; New plasmid; Rluc8 fragment from pTRE-Tight-Rluc8 (Addgene 79844); also called Rluc8-STAM1; RLuc8-STAM1; source: HEK293, transiently transfected (PEI), in live cells; not shown: Rluc8, N-terminal, kept
B2: βarrestin1-GFP10 (natural protein, UniProt P49407 1-418, looked up)
chain: MGDKGTRVFKKASPNGKLTVYLGKRDFVDHIDLVDPVDGVVLVDPEYLKERRVYVTLTCAFRYGREDLDVLGLTFRKDLFVANVQSFPPAPEDKKPLTRLQERLIKKLGEHAYPFTFEIPPNLPCSVTLQPGPEDTGKACGVDYEVKAFCAENLEEKIHKRNSVRLVIRKVQYAPERPGPQPTAETTRQFLMSDKPLHLEASLDKEIYYHGEPISVNVHVTNNTNKTVKKIKISVRQYADICLFNTAQYKCPVAMEEADDTVAPSSTFCKVYTLTPFLANNREKRGLALDGKLKHEDTNLASSTLLREGANREILGIIVSYKVKVKLVVSRGGLLGDLASSDVAVELPFTLMHPKPKEEPPHREVPENETPVDTNLIELDTNDDDIVFEDFARQRLKGMKDDKEEEEDGTGSPQLNNR
notes: βarrestin1 (βarr1); plasmid a gift from Michel Bouvier; Gift plasmid; also called βarr1-GFP; βarr1-GFP^10; source: HEK293, transiently transfected (PEI), in live cells

Assays:
[1] = target: CXCR5 tagged with Rluc8 at the C terminus (wild type) (UniProt P32302); experiment: FRET or BRET; BRET in live HEK293 cells coexpressing CXCR4-Rluc3 or CXCR5-Rluc8 with STAM1-GFP, cotransfected with βarr1; increasing concentrations of CXCL12 or CXCL13, 10 min, 37 °C
CXCR4-Rluc3 = target: T1, CXCR4-Rluc3 (UniProt P61073 1-352); experiment: as above
T1 construct: chemokine receptor CXCR4; plasmid a gift from Nikolaus Heveker; Gift plasmid; also called Rluc3-tagged CXCR4; source: HEK293, transiently transfected (PEI), in live cells

βarrestin1-GFP10 [2] = target: B2; experiment: condition: only with 30 μM GRK2/3 inhibitor compound 101 (cells expressing HA-CXCR4, CXCL12); FRET or BRET; as a1, but cells pretreated with 30 μM GRK2/3 inhibitor compound 101 (30 min) before CXCL12
βarrestin1-GFP10 [3] = target: B2; experiment: FRET or BRET; BRET2 in live HEK293 cells coexpressing HA-CXCR4, Rluc8-STAM1 (donor) and βarr1-GFP10 (acceptor); increasing concentrations of CXCL12 at 37 °C, read at room temperature 10 min after CXCL12; vehicle or 1 μM PKC inhibitor Gö6983 (no effect)
βarrestin1-GFP10 [4] = target: B2; experiment: condition: only in cells expressing FLAG-CXCR5-4S/A stimulated with CXCL13; FRET or BRET; BRET2 in live HEK293 cells coexpressing FLAG-CXCR5-4S/A, Rluc8-STAM1 and βarr1-GFP; increasing concentrations of CXCL13, 10 min, 37 °C
βarrestin1-GFP10 [5] = target: B2; experiment: FRET or BRET; BRET2 in live HEK293 cells coexpressing the chimera CCR5 with the C-tail of CXCR4 (CCR5-R4 tail), Rluc8-STAM1 and βarr1-GFP; increasing concentrations of CCL5, 10 min, 37 °C
βarrestin1-GFP10 [6] = target: B2; experiment: condition: only in cells expressing CXCR4 Ser-346/7A in place of wild-type CXCR4 (CXCL12); FRET or BRET; BRET2 in live HEK293 cells coexpressing HA-tagged CXCR4 Ser-346/7A, Rluc8-STAM1 and βarr1-GFP; increasing concentrations of CXCL12, 10 min, 37 °C
βarrestin1-GFP10 [7] = target: B2; experiment: FRET or BRET; BRET2 in live HEK293 cells coexpressing HA-tagged CXCR4 Ser-324/5A, Rluc8-STAM1 and βarr1-GFP; increasing concentrations of CXCL12, 10 min, 37 °C
βarrestin1-GFP10 [8] = target: B2; experiment: condition: only in cells expressing the chimera CXCR4-R5 tail stimulated with CXCL12; FRET or BRET; BRET2 in live HEK293 cells coexpressing the chimera CXCR4 with the C-tail of CCR5 (CXCR4-R5 tail), Rluc8-STAM1 and βarr1-GFP; increasing concentrations of CXCL12, 10 min, 37 °C
βarrestin1-GFP10 [9] = target: B2; experiment: condition: only in cells expressing FLAG-β2AR stimulated with isoproterenol; FRET or BRET; BRET2 in live HEK293 cells coexpressing FLAG-β2AR, Rluc8-STAM1 and βarr1-GFP; increasing concentrations of isoproterenol, 10 min, 37 °C
βarrestin1-GFP10 [10] = target: B2; experiment: FRET or BRET; BRET2 in live HEK293 cells coexpressing FLAG-CXCR5 (wild type), Rluc8-STAM1 and βarr1-GFP; increasing concentrations of CXCL13, 10 min, 37 °C
βarrestin1-GFP10 [11] = target: B2; experiment: condition: only in cells expressing CCR5 stimulated with CCL5; FRET or BRET; BRET2 in live HEK293 cells coexpressing CCR5 (HA-tagged in the legend, FLAG-CCR5 in the text), Rluc8-STAM1 and βarr1-GFP; increasing concentrations of CCL5, 10 min, 37 °C
[12] = target: CXCR5 tagged with Rluc8 at the C terminus (wild type) (UniProt P32302); experiment: FRET or BRET; BRET2 in live HEK293 cells coexpressing a GPCR tagged with Rluc (CXCR4-Rluc3, or GPCR-Rluc8; donor) and βarr1-GFP10 (acceptor); increasing concentrations of the receptor's agonist at 37 °C; vehicle or 1 μM Gö6983 (little effect, CXCR4)
CXCR5-RLuc8-4S/A = CXCR5-RLuc8-4S/A (UniProt P32302); experiment: as above

- binding [1]: binds
- binding (CXCR4-Rluc3): binds
Molecule: STAM1-GFP (from UniProt Q92783 1-540)

Molecule: B1
- binding (βarrestin1-GFP10 [2]): no binding
- binding (βarrestin1-GFP10 [3]): binds
- binding (βarrestin1-GFP10 [4]): no binding
- binding (βarrestin1-GFP10 [5]): binds
- binding (βarrestin1-GFP10 [6]): no binding
- binding (βarrestin1-GFP10 [7]): binds
- binding (βarrestin1-GFP10 [8]): no binding
- binding (βarrestin1-GFP10 [9]): no binding
- binding (βarrestin1-GFP10 [10]): binds
- binding (βarrestin1-GFP10 [11]): no binding

Molecule: B2
- binding [12]: binds
- binding (CXCR5-RLuc8-4S/A): no binding
